These results are taken from article doi:10.1101/2025.02.04.636395.

Where a chain is given by its changes, count along the chain named. These are yes or no findings as the source states them, for the method shown. Binding seen in cells or lysates may run through a third protein. Some entries that bind do so weakly or less than the wild type. Sequences can lack the tags named with a protein.

Experiment in all cases: co-IP; GFP-trap (GFP-nanotrap agarose) from lysates of transfected HEK293T cells; lysis in 0.5% NP-40, 100 mM Tris-HCl pH 7.5 in PBS (in dH2O for GFP-SNX17); 1 h at 4 °C; western blot of endogenous Retriever subunits, CCC subunits and RAB32 or of co-expressed mCherry-LRMDA
One test concerns the target T1, GFP-RAB32 Q85L (UniProt Q13637).
T1 sequence: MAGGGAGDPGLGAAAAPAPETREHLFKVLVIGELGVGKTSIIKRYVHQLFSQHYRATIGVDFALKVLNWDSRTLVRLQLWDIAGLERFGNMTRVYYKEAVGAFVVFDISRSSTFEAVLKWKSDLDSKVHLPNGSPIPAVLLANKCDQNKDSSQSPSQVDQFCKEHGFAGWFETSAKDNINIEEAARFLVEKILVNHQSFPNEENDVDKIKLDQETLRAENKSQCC

Another test deals with T2, GFP-RAB32 (UniProt Q13637).
T2 sequence: T1 sequence with L85Q

A further test concerns the target T3, GFP-RAB32 T39N (UniProt Q13637).
T3 sequence: T1 sequence with T39N, L85Q

B1: mCherry-LRMDA (protein, UniProt A0A087WWI0 1-226)
chain: MAGLVVRGTQVSYIGQDCREIPEHLGRDCGHFAKRLDLSFNLLRSLEGLSAFRSLEELILDNNQLGDDLVLPGLPRLHTLTLNKNRITDLENLLDHLAEVTPALEYLSLLGNVACPNELVSLEKDEEDYKRYRCFVLYKLPNLKFLDAQKVTRQEREEALVRGVFMKVVKPKASSEDVASSPERHYTPLPSASRELTSHQGVLGKCRYVYYGKNSEGNRFIRDDQL
For B1, the results for the binding entry with GFP-RAB32 Q85L, with GFP-RAB32 and in the test with GFP-RAB32 T39N were “binds”, “binds” and “no binding”, respectively.
